The values below come from patent US20250179210A1, “ANTI-CEACAM5 ANTIBODIES AND CONJUGATES AND USES THEREOF” (Merck Patent GmbH, priority 2022, published 2025).

The test system of data set [1] is human patient-derived gastric xenograft model GAPF313. The data set can be described thus: Gastric PDX mouse model GAPF313. It counts as in vivo. Here is the method:
Anti-tumor efficacy in vivo was evaluated in the human patient-derived gastric xenograft model GAPF313 (Shanghai LideBiotech CO., LTD). Tumor fragments were transplanted subcutaneously into the right flank of six to eight weeks old immunodeficient female mice (NU-Foxn1nu, Charles River). […] Tumor length (L) and width (W) were measured with calipers and tumor volumes were calculated using the formula L×(W^2)/2.
Anti-tumor efficacy of ADC1-M and ADC3-M in comparison to ADC SAR DM4 has been evaluated in the human GC xenograft model GAPF313. The study was performed at Lide Biotech (Shanghai). Six to eight weeks old immunodeficient female mice (Crl: NU-Foxn1nu) were transplanted subcutaneously in the right flank with GAPF313 tumor fragments. When tumors reached a mean volume of 176 mm^3 6 mice/group were treated intravenously every other week (3 cycles) with vehicle (saline solution) or with 4 mg/kg ADC1-M or ADC3-M or 4.7 mg/kg ADC SAR DM4. Tumor length (L) and width (W) were measured with calipers and tumor volumes were calculated using L×W^2/2.

For data set [2], the system named is CEACAM5-negative MDA-MB-231 cells in co-culture with CEACAM5-positive SK-CO-1 cells. Nature of the data set: Bystander assay. To be noted: for non-specific effect on MDA-MB-231 cells alone (only controls) / bystander effect against CEACAM5-negative MDA-MB-231 cells in the presence of CEACAM5-positive SK-CO-1: ADC concentration of 1 nM; for bystander effect against CEACAM5-negative MDA-MB-231 cells in the presence of CEACAM5-positive SK-CO-1: six days; for bystander effect compared to ADC SAR DM4: co-culture, 1 nM. It counts as cell-based, human. How it is done:
Cytotoxicity effects of ADCs on antigen-negative cancer cell lines in co-culture with antigen-positive cancer cell lines were measured by bystander assays. One thousand CEACAM5-negative MDA-MB-231 cells were seeded in co-culture experiments with 750 or 3000 CEACAM5-positive SK-CO-1 cells per well. As a control, 1000 MDA-MB-231 cells only were seeded in parallel. Cells were seeded in a total volume of 90 μL in 96-well plates the day before treatment. Test compounds were formulated at 10-fold the final concentration of 1E-9 M in cell culture medium and 10 μL was added to the cells in duplicates. Plates were cultured at 37° C. in a CO2 incubator for six days.
Prior to immunofluorescence staining, medium was removed and cells were treated with 100% methanol (−20° C.) for 30 minutes. After methanol removal and one PBS wash step, cells were treated with 2.5% paraformaldehyde (PFA) with 0.2% Triton X-100 in PBS for 15 minutes at room temperature. After solution removal and one PBS wash step, cells were treated with 1% BSA/0.1% Tween/0.1% sodium azide in PBS for at least one hour at room temperature. Antigen-positive and antigen-negative cells were discriminated by immunofluorescence staining with 10 μg/mL human anti-CEACAM5 (mAb1) primary antibody and 1:2000 dilution of donkey anti-human IgG fluorescently (phycoerythrin) labeled secondary antibody (Jackson ImmunoResearch #709-116-149). Cells were identified by nuclei staining using 1 μg/mL Hoechst 33342 (Life technologies, cat #H3570) dye. Staining was carried out in 1% BSA/0.1% sodium azide PBS solutions for 30 minutes at room temperature. Secondary antibody staining was combined with Hoechst dye staining. Between and after staining steps, cells were washed thrice with PBS.
Plates were imaged with the confocal quantitative image cytometer CQ1 (Yokogawa® Electric Corporation, Tokyo, Japan). Analysis was adapted from the CQ1 software (Yokogawa) template “Nucleus and pseudo-Cell body” and FCS export files were analyzed using FlowJo (BD). Based on staining or absence of staining with fluorescently labeled antibody around the nucleus, antigen-positive and antigen-negative cells were distinguished and quantified. Bar graphs show the number of identified antigen-positive and antigen-negative cells per treatment condition.

The subject of data set [3] is human pancreatic cell line derived xenograft model HPAF-II. The data set can be described thus: Pancreatic cell line derived xenograft model HPAF-II. It counts as in vivo, mouse. To be noted: for anti-tumor effect: single i.v. treatment. Here is the method: 5×10^6 HPAF-II cells were injected subcutaneously into the right flank of six to eight weeks old immunodeficient female mice (Hsd:Athymic Nude-Foxn1nu, Envigo). […] Tumor length (L) and width (W) were measured with calipers and tumor volumes were calculated using L×(W^2)/2.
Efficacy of ADC1-M and ADC3-M in comparison to ADC8 was evaluated in the human pancreatic adenocarcinoma, cell line-derived xenograft model HPAF-II (ATCC, CRL-1997). Six to eight weeks old immunodeficient female mice (Hsd:Athymic Nude-Foxn1nu, Envigo) were injected subcutaneously in the right flank with 5×10^6 HPAF-II cells. When tumors reached a mean volume of 150 mm^3, 10 mice/group were treated once intravenously with ADC1-M (1 mg/kg or 6 mg/kg) or with ADC3-M (1 mg/kg or 6 mg/kg) or with ADC8 (1 mg/kg or 6 mg/kg). Tumor length (L) and width (W) were measured with calipers and tumor volumes were calculated using L×W^2/2.

Data set [4] can be described thus: Pharmacokinetic study in human FcRn transgenic mice. The conditions noted are these: 3 mg/kg i.v., HuFcRn mice; for C0: back extrapolation; for %_Ext: extrapolated part of AUCinf; for t1/2: total antibody.
For data set [5], the system named is human patient-derived CRC xenograft model COPF230. The data set can be described thus: CRC PDX mouse model COPF230. It counts as in vivo. The conditions noted are these: for efficacy compared to ADC SAR DM4 in CRC PDX models (expected): COPF230 and REPF210. Here is the method:
Anti-tumor efficacy in vivo was evaluated in the human patient-derived CRC xenograft models COPF230 and REPF210 (Shanghai LideBiotech CO., LTD). Tumor fragments were transplanted subcutaneously into the right flank of six to eight weeks old immunodeficient female mice (NU-Foxn1nu, Charles River). […] Tumor length (L) and width (W) were measured with calipers and tumor volumes were calculated using the formula L×(W^2)/2.
Anti-tumor efficacy of ADC1-M and ADC3-M in comparison to ADC SAR DM4 was in the human CRC xenograft model COPF230. The study was performed at Lide Biotech (Shanghai). Six to eight weeks old immunodeficient female mice (Crl: NU-Foxn1nu) were transplanted subcutaneously in the right flank with COPF230 tumor fragments. When tumors reached a mean volume of 165 mm^3 6 mice/group were treated once intravenously with vehicle (saline solution) or with ADC1-M, ADC3-M or ADC SAR DM4 (each 6 mg/kg). Tumor length (L) and width (W) were measured with calipers and tumor volumes were calculated using L×W^2/2.

B1: ADC6-M (conjugate)
heavy: EVQLQESGPGLVKPSQTLSLTCTVSDGSVSRGGYYLTWIRQHPGKGLEWIGYIYYSGSTYFNPSLRSRVTMSVDTSKNQFSLKLSSVTAADTAVYYCARGIAVAPFDYWGQGTLVTVSSASTKGPSVFPLAPSSKSTSGGTAALGCLVKDYFPEPVTVSWNSGALTSGVHTFPAVLQSSGLYSLSSVVTVPSSSLGTQTYICNVNHKPSNTKVDKRV[letters of human IgG1 Fc with changes left out]
light: EIVLTQSPATLSVSPGERATLSCRTSQSVRSNLAWYQQKPGQAPRLLIYAASTRATGIPARFSGSGSGTEFTLTISSLQSEDFAVYYCQQYTNWPFTFGPGTKVDIKRTVAAPSVFIFPPSDEQLKSGTASVVCLLNNFYPREAKVQWKVDNALQSGNSQESVTEQDSKDSTYSLSSTLTLSKADYEKHKVYACEVTHQGLSSPVTKSFNRGEC
As to B1, the “efficacy compared to ADC SAR DM4 (expected)” value in data set [1] is on record as “compare similarly favorably to ADC SAR DM4”. Further, in data set [2], the “non-specific effect on MDA-MB-231 cells alone (only controls)” value is recorded as “no non-specific effect”, the “bystander effect against CEACAM5-negative MDA-MB-231 cells in the presence of CEACAM5-positive SK-CO-1” value is on record as “potent bystander effect”, the “bystander effect compared to ADC SAR DM4” value is given as “much more potent bystander effect” and the “bystander effect compared to ADC SAR (expected)” value is on record as “more potent bystander effects than ADC SAR”. For the same molecule, the “efficacy compared to ADC3 (expected)” value in data set [3] is “compare similarly favorably to ADC3”. In addition, in data set [4], the AUCinf amounted to 2850 µg·h/mL, the AUClast stood at 2850 µg·h/mL, the Cl came to 25.2 mL/day/kg and the Tlast is listed as 336 h. For the same molecule, in data set [4], the Vss came out at 0.0498 L/kg, the distribution volume (Vz) stood at 0.0513 L/kg, the C0 was 84.1 µg/mL and the “%_Ext” value was 0.1%. The t1/2 in data set [4] is on record as 33.8 h. For the same molecule, in data set [5], the “efficacy compared to ADC SAR DM4 in CRC PDX models (expected)” value is “compare similarly favorably to ADC SAR DM4”.

B2: ADC3-M (conjugate)
heavy: EVQLQESGPGLVKPSQTLSLTCTVSDGSVSRGGYYLTWIRQHPGKGLEWIGYIYYSGSTYFNPSLRSRVTMSVDTSKNQFSLKLSSVTAADTAVYYCARGIAVAPFDYWGQGTLVTVSSASTKGPSVFPLAPSSKSTSGGTAALGCLVKDYFPEPVTVSWNSGALTSGVHTFPAVLQSSGLYSLSSVVTVPSSSLGTQTYICNVNHKPSNTKVDKRVEPKSCDRTHTCPPCPAPEAAGGPSVFLFPPKPKDTLYITREPEVTCVVVDVSHEDPEVKFNWYVDGVEVHNAKTKPREEQYNSTYRVVSVLTVLHQDWLNGKEYKCKVSNKALPAPIEKTISKAKGQPREPQVYTLPPSREEMTKNQVSLTCLVKGFYPSDIAVEWESNGQPENNYKTTPPVLDSDGSFFLYSKLTVDKSRWQQGNVFSCSVMHEALHNHYTQKSLSLSPG
light: EIVLTQSPATLSVSPGERATLSCRTSQSVRSNLAWYQQKPGQAPRLLIYAASTRATGIPARFSGSGSGTEFTLTISSLQSEDFAVYYCQQYTNWPFTFGPGTKVDIKRTVAAPSVFIFPPSDEQLKSGTASVVCLLNNFYPREAKVQWKVDNALQSGNSQESVTEQDSKDSTYSLSSTLTLSKADYEKHKVYACEVTHQGLSSPVTKSFNRGECGGTLQSPP
modifications: GGG-glucuronide-exatecan conjugate, DAR 4
Take B2: the “efficacy compared to ADC SAR DM4 (expected)” value in data set [1] is “compare similarly favorably to ADC SAR DM4”. Besides, the anti-tumor effect entry in data set [1] (i.v. every other week (3 cycles), 4 mg/kg ADC1-M or ADC3-M, 4.7 mg/kg ADC SAR DM4) is “comparable and significant anti-tumor effect”; in data set [3] (1 mg/kg), “minor and temporary anti-tumor effect”; in data set [3] (6 mg/kg) it was “much stronger anti-tumor effect”; in data set [5] (single i.v. treatment, 6 mg/kg), “comparable and significant anti-tumor effect”. Moreover, the “bystander effect compared to ADC SAR (expected)” value in data set [2] is “more potent bystander effects than ADC SAR”. In addition, the “efficacy compared to ADC3 (expected)” value in data set [3] was “compare similarly favorably to ADC3”. The “efficacy compared to ADC SAR DM4 in CRC PDX models (expected)” value in data set [5] is listed as “compare similarly favorably to ADC SAR DM4”.

B3: ADC7-M (conjugate)
heavy: EVQLQESGPGLVKPSQTLSLTCTVSDGSVSRGGYYLTWIRQHPGKGLEWIGYIYYSGSTYFNPSLRSRVTMSVDTSKNQFSLKLSSVTAADTAVYYCARGIAVAPFDYWGQGTLVTVSSASTKGPSVFPLAPSSKSTSGGTAALGCLVKDYFPEPVTVSWNSGALTSGVHTFPAVLQSSGLYSLSSVVTVPSSSLGTQTYICNVNHKPSNTKVDKRV[letters of human IgG1 Fc with changes left out]
light: B2 light
Consider B3, for which, in data set [1], the “efficacy compared to ADC SAR DM4 (expected)” value is “compare similarly favorably to ADC SAR DM4”. In data set [2], the “non-specific effect on MDA-MB-231 cells alone (only controls)” value is “no non-specific effect”, the “bystander effect against CEACAM5-negative MDA-MB-231 cells in the presence of CEACAM5-positive SK-CO-1” value is listed as “potent bystander effect”, the “bystander effect compared to ADC SAR DM4” value is “much more potent bystander effect” and the “bystander effect compared to ADC SAR (expected)” value was “more potent bystander effects than ADC SAR”. For the same molecule, the “efficacy compared to ADC3 (expected)” value in data set [3] is recorded as “compare similarly favorably to ADC3”. In data set [4], this molecule showed an AUCinf of 6140 µg·h/mL, an AUClast of 5720 µg·h/mL, a Cl of 11.7 mL/day/kg and a Tlast of 504 h. For the same molecule, in data set [4], the Vss came out at 0.0934 L/kg, the volume of distribution (Vz) came to 0.086 L/kg, the C0 was 55.8 µg/mL and the “%_Ext” value was 6.9%. In data set [4], this molecule showed a t1/2 of 122 h. Also, in data set [5], the “efficacy compared to ADC SAR DM4 in CRC PDX models (expected)” value is listed as “compare similarly favorably to ADC SAR DM4”.

Usually Vss stands for a proportionality between amount in the body and measured concentration, not a real space. Broadly, the Vz is the apparent volume that relates the amount in the body to the concentration in plasma or blood.
